Read-outs that look alike come from different tables or passages of the source.
Key:
[1] = Phase I VelGemRad trial, MTD, DLT and safety
MiaPaCa-2 = experiment: radiosensitization in vitro (PAR Western/ELISA, clonogenic dose enhancement, caspase 3/7)

Compound: C[C@]1(c2nc3c(C(N)=O)cccc3[nH]2)CCCN1 [veliparib]
- DLTs identified ([1]; 30 evaluable patients): 16
- DLTs: abdominal infection ([1]; count): 1
- DLTs: abdominal pain ([1]; count): 1
- DLTs: febrile neutropenia ([1]; count): 1
- DLTs: hyponatremia ([1]; count): 1
- DLTs: leukopenia ([1]; count): 1
- DLTs: lymphopenia ([1]; count): 10
- DLTs: neutropenia ([1]; count): 1
- GI toxicities ([1]; with gemcitabine and RT): No significant GI toxicities
- cytotoxicity alone (MiaPaCa-2): minimal cytotoxicity
- radiation-induced caspase 3/7 activity (MiaPaCa-2): significantly enhanced
- dose enhancement factor (MiaPaCa-2; 5 Gy and 1 uM): 1.29
- dose enhancement factor (MiaPaCa-2; 5 Gy and 10 uM): 1.41
- dose enhancement factor (MiaPaCa-2; 5 Gy and 100 uM): 2.36
- phospho-ATM levels (MiaPaCa-2; irradiation plus veliparib relative to either alone): upregulation
- survival at 60 days (pancreatic tumors; single dose of veliparib): 0%
- tumor growth inhibition (pancreatic tumors; single dose of veliparib): 8 days
- survival at 30 days (pancreatic tumors; veliparib plus radiotherapy): 100%
- survival at 60 days (pancreatic tumors; veliparib plus radiotherapy): 29%
- tumor growth inhibition (pancreatic tumors; veliparib plus radiotherapy): 39 days

From patent US11149300B1, “Methods of treating gastrointestinal malignancies” (Cedars-Sinai Medical Center, priority 2018, dated 2021)
